Screen size: about 390,000 compounds; about 17,000 (4.4%) were called active. Inconclusive means that the source gave no clear call. Such entries were picked first, then a sample of the others. Calls follow the shape of the dose curve; as a rule, active = well fitted inhibition curve with a large enough effect; inconclusive = small, poorly fitted or top-dose-only effect; inactive = no such curve, though single readings can be large or run the other way. A potency beside an inconclusive call is a rough fit, not a confirmed value.
These molecules were tested against Lysine-specific demethylase 4A (Homo sapiens) (UniProt O75164) (assay: qHTS Assay for Inhibitors of JMJD2A-Tudor Domain). Conditions: AlphaScreen JMJD2A-Tudor / H3K4me3 peptide binding; activity change, negative = inhibition: at 114 µM (top of the series).
UniProt O75164, sequence (O75164 whole entry, looked up, the tested form may be a part): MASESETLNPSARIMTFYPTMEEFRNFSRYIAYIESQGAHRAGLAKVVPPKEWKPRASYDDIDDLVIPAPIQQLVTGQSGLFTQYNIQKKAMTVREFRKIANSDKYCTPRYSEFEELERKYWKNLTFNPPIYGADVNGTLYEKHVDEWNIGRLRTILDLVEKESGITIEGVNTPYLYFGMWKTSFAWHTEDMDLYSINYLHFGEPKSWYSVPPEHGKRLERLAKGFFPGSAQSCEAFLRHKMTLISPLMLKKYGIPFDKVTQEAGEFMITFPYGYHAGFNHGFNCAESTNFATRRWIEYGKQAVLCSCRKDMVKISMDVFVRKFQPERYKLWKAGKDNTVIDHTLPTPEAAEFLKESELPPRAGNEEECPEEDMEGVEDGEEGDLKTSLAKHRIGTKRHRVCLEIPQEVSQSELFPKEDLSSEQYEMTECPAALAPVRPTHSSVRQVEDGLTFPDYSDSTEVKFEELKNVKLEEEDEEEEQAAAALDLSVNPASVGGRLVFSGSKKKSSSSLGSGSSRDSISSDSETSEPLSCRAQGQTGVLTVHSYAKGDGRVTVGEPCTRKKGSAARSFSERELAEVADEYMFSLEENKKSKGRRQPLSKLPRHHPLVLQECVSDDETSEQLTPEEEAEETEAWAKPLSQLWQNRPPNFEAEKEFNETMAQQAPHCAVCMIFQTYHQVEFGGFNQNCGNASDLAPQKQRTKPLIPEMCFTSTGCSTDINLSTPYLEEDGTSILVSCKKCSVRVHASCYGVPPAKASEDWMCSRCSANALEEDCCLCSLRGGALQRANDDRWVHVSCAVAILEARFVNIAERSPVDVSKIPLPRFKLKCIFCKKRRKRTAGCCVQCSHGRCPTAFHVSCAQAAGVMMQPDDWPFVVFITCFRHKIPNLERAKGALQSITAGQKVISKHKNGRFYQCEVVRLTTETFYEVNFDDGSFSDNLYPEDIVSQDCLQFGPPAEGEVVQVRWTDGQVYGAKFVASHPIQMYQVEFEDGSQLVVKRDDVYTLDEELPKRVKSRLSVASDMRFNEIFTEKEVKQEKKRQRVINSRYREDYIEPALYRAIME
With Cc1c(C)n(Cc2ccccc2)c2ccc(C(=O)OCCCN(C)C)cc12 the Potency was active: 39.8 µM.
For O=C(NC1CCCC1)c1cc(Nc2cccc(C(F)(F)F)c2)nc2ccccc12, the “activity change, negative = inhibition” value was inactive: 14.7%.
For COc1ccc(OC)c(-c2csc(NC(=O)C3c4ccccc4Oc4ccccc43)n2)c1, the Potency was inconclusive: 56.2 µM [inhibitor, partial curve, poor fit].
With CCN(CC)C(=O)c1sc2nc(Cc3ccccc3)[nH]c(=O)c2c1C the Potency was inconclusive: 7.08 µM [inhibitor, full curve].
With O=S1(=O)OCCC(c2ccccc2)N1Cc1ccccc1 (centres undefined) the “activity change, negative = inhibition” value was inactive: 25.9%.
In the case of Cc1[nH]n(-c2ccc(Br)cc2)c(=O)c1/C=N/NC(=O)c1ccccc1, the Potency is reported as active: 79.4 µM.
In the case of NC(=O)c1nc(Nc2ccccc2)sc1NC(=O)c1ccccc1Br, the “activity change, negative = inhibition” value is reported as inactive: -11%.
COc1ccc2c(c1)Sc1ccccc1N2CCN(C)C was tested, and the Potency was inconclusive: 5.01 µM [inhibitor, partial curve, poor fit].
In the case of COc1ccc(Nc2ccc(S(=O)(=O)N3CCCCCC3)cc2[N+](=O)[O-])cc1, the Potency is reported as active: 6.31 µM.
In the case of Cc1ccccc1NC(=O)C1c2ccccc2Oc2ccccc21, the Potency is reported as inconclusive: 39.8 µM [inhibitor, single point].
With CN(Cc1ccccc1)CC(O)COc1ccc(CNCc2nccn2C)cc1 (centres undefined) the activity change, negative = inhibition was inactive: -15% [at 11.4 µM].
In the case of C=CCOc1ccc(C2NC(=S)NC3=C2CCc2ccccc23)cc1 (centres undefined), the Potency is reported as inconclusive: 89.1 µM [inhibitor, single point].
In the case of COc1ccccc1N1CCN(c2nnc(-c3ccc(F)cc3)c3ccccc23)CC1, the “activity change, negative = inhibition” value is reported as inactive: -17.8%.
O=C(CSc1ccc2nnc(-c3ccccn3)n2n1)NCc1ccc2c(c1)OCO2 was tested, and the Potency was inconclusive: 89.1 µM [inhibitor, single point].
Cc1ccc(C(=O)N2CCN(c3ccc(NC(=O)c4ccc(Br)o4)cc3)CC2)cc1 was tested, and the Potency was inconclusive: 28.2 µM [inhibitor, full curve].
In the case of Oc1ccccc1N1CCN(c2nnnn2-c2ccccc2)CC1, the Potency is reported as inconclusive: 20 µM [inhibitor, full curve].
With CCOC(=O)CSc1nnc(CNc2nc(-c3ccccc3)cs2)n1C the Potency was inconclusive: 79.4 µM [inhibitor, single point].
CCN1/C(=C/C=C/C=C/C=C/c2sc3ccccc3[n+]2CC)Sc2ccccc21 was tested, and the Potency was active: 20 µM.
In the case of Cc1nnc(NC(=O)c2ccc(S(=O)(=O)N3CC(C)OC(C)C3)cc2)o1 (centres undefined), the Potency is reported as active: 2.82 µM.
COc1ccc(/C(C)=N/N=C2/NC(=O)CC(C(=O)O)S2)cc1 (centres undefined) was tested, and the Potency was active: 44.7 µM.
In the case of CCOC(=O)c1nnn(-c2nonc2-n2cccc2)c1CCl, the Potency is reported as inconclusive: 79.4 µM [inhibitor, partial curve].
In the case of O=C(O)CSc1c2c(nc3cc(C(=O)N4CCOCC4)ccc13)CCCC2, the Potency is reported as active: 39.8 µM.
With COc1ccc(C)cc1NC(=O)CN1CCN(C/C=C/c2ccccc2)CC1 the Potency was inconclusive: 50.1 µM [inhibitor, partial curve].
With CCCCCn1c(C(Cc2ccccc2)NC(=O)COC)nc2ccccc21 (centres undefined) the “activity change, negative = inhibition” value was inactive: -13.6%.
CC(C)C[C@@H](CNCC(=O)[C@H](CC(C)C)NC(=O)c1[nH]cnc1C(=O)N[C@H](CN)CC(C)C)NC(=O)c1nc[nH]c1C(=O)N[C@@H](Cc1ccccc1)C(=O)O was tested, and the Potency was inconclusive: 44.7 µM [inhibitor, partial curve].
Cc1c(C)n(C)c2ccc(C(=O)NCc3cccc(F)c3)cc12 was tested, and the Potency was inconclusive: 44.7 µM [inhibitor, partial curve].
With Cc1cnc(C(=O)OCC(=O)NC(=O)c2ccccc2)cn1 the “activity change, negative = inhibition” value was inactive: -13.8%.
For CC(=O)Nc1sc(N/N=C/c2ccccc2)nc1-c1ccc(C)cc1, the Potency was inconclusive: 22.4 µM [inhibitor, partial curve].
With CSc1ccccc1NC(=O)CN(C)C(C)C(=O)NCc1ccc2c(c1)OCO2 (centres undefined) the Potency was active: 5.01 µM.
O=C(Oc1cccc(C(=S)N2CCOCC2)c1)c1cc([N+](=O)[O-])cc([N+](=O)[O-])c1 was tested, and the Potency was inconclusive: 22.4 µM [inhibitor, full curve].
In the case of Cc1c(NC(=O)C(C)Oc2ccc(Br)cc2Cl)c(=O)n(-c2ccccc2)n1C (centres undefined), the “activity change, negative = inhibition” value is reported as inactive: -11%.
For CC(=O)Nc1ccc(S(=O)(=O)NCCNS(=O)(=O)c2ccc(NC(C)=O)cc2)cc1, the “activity change, negative = inhibition” value was inactive: -21.3%.
In the case of CCCC(=O)Nc1ccc2c(c1)nc1n2CCN(C2CCCCC2)C1, the Potency is reported as inconclusive: 89.1 µM [inhibitor, single point].
With CCCCCSc1nc2sc3c(c2c(=O)n1-c1ccc(OC)cc1)CCN(C(C)=O)C3 the Potency was inconclusive: 44.7 µM [inhibitor, partial curve].
With OCC1OC(n2cnc3c(=S)nc[nH]c32)CC1O (centres undefined) the Potency was active: 2.82 µM.
Cc1ccc(N/N=C(\Cc2nc3ccccc3[nH]2)c2ccccc2)cc1 was tested, and the Potency was inconclusive: 39.8 µM [inhibitor, partial curve].
For CN(CC(=O)Nc1cccc(Cl)c1)S(=O)(=O)c1ccc2c(c1)n(C)c(=O)c(=O)n2C, the Potency was inconclusive: 70.8 µM [inhibitor, partial curve, poor fit].
For C(=N\n1cnnc1)/c1cccc(Oc2ccccc2)c1, the “activity change, negative = inhibition” value was inactive: -8.11%.
O=C(NNC(=S)NC(=O)c1ccccc1[N+](=O)[O-])c1ccccc1Cl was tested, and the “activity change, negative = inhibition” value was inactive: 2.6%.
With CCn1c(COc2ccc(=O)n(-c3ccccc3)n2)n[nH]c1=S the Potency was active: 20 µM.
With O=[N+]([O-])c1cc2oc3c(c2c(C=NCc2ccccc2)c1O)CCCC3 the Potency was active: 70.8 µM.
In the case of O=C(Nc1nnc(-c2ccc(Br)cc2)o1)c1ccco1, the Potency is reported as inconclusive: 56.2 µM [inhibitor, partial curve].
CC(C)N=C1NN=C(c2ccc(Cl)c(Cl)c2)CS1 was tested, and the Potency was inconclusive: 50.1 µM [inhibitor, partial curve].
With Cc1ccc(N2CCN(c3ncccc3[N+](=O)[O-])CC2)c(C)c1 the Potency was active: 39.8 µM.
With O=C(NNC(=S)NCc1ccco1)c1cccs1 the Potency was inconclusive: 89.1 µM [inhibitor, single point].
For CCOc1ccccc1C(O)C1=CC(=O)c2ccccc2C1=O (centres undefined), the Potency was active: 25.1 µM.
With Cc1ccc2sc(N3CCN(CCNC(=O)c4ccco4)CC3)nc2c1C the Potency was inconclusive: 50.1 µM [inhibitor, partial curve].
In the case of O=C(Nc1ccccn1)c1ccc(S(=O)(=O)N2CCCC2)cc1, the “activity change, negative = inhibition” value is reported as inactive: -4.81%.
In the case of CCN(CC)c1ccc(NC(=O)c2ccccc2)cc1S(=O)(=O)Nc1ccccc1OC, the Potency is reported as active: 79.4 µM.
COC(=O)c1ccc(CSCC(=O)Nc2cc(OC)cc(OC)c2)o1 was tested, and the Potency was inconclusive: 79.4 µM [inhibitor, partial curve].
For CN(Cc1ccco1)S(=O)(=O)c1ccc(CN2C(=O)c3cccnc3C2=O)s1, the Potency was active: 31.6 µM.
In the case of CCC1Oc2ccccc2N(CC(=O)NCCCN2CCN(c3ccc(OC)cc3)CC2)C1=O (centres undefined), the Potency is reported as inconclusive: 39.8 µM [inhibitor, full curve, poor fit].
O=C(O)CSC1=NS(=O)(=O)c2ccccc21 was tested, and the Potency was active: 17.8 µM.
In the case of CCc1ccc(NS(=O)(=O)c2cc(-c3cnc(C4CC4)o3)ccc2C)cc1, the Potency is reported as inconclusive: 50.1 µM [inhibitor, partial curve].
In the case of Cc1ccc(OCC(=O)OC2=C(C(=O)c3ccccc3)N(C)S(=O)(=O)c3ccccc32)cc1, the Potency is reported as inconclusive: 25.1 µM [inhibitor, full curve].
With O=C1c2ccccc2[C@@H]2C[C@@H](O)[C@H](Nc3cccc4ccccc34)CCN12 the Potency was inconclusive: 89.1 µM [inhibitor, partial curve].
In the case of O=[N+]([O-])c1ccc(CSc2ncnc3ccccc23)cc1, the Potency is reported as inconclusive: 15.8 µM [inhibitor, full curve, poor fit].
In the case of COc1ccc2c(c1)Cc1sc(NC(=O)c3cccc(C)c3)nc1-2, the Potency is reported as inconclusive: 50.1 µM [inhibitor, partial curve].
CC(C)(C)OC(=O)N1Cc2ccccc2C[C@H]1C(=O)O was tested, and the activity change, negative = inhibition was inactive: -4.11% [at 11.4 µM].
In the case of Cc1c(C(=O)N2CCCCC2)c(S(=O)(=O)N2CCN(c3ccc(Cl)cc3)CC2)c(C)n1C, the Potency is reported as inconclusive: 100 µM [inhibitor, single point].
With CCc1ccc2oc(C(=O)NCCc3ccc(S(N)(=O)=O)cc3)cc(=O)c2c1 the Potency was inconclusive: 17.8 µM [inhibitor, full curve, poor fit].
Nc1nonc1NC(=O)NN=C1CCCCC1 was tested, and the Potency was inconclusive: 3.16 µM [inhibitor, single point].
For COc1ccc(NC(=O)Nc2ccc3c(c2)N(C)C(=O)CS3)cc1OC, the Potency was inconclusive: 56.2 µM [inhibitor, partial curve].
Cc1cccc(NC(=O)c2ccc(NC(C)c3ccccc3)c([N+](=O)[O-])c2)n1 (centres undefined) was tested, and the Potency was inconclusive: 5.62 µM [inhibitor, full curve].
Cc1cccc(NC(=O)COC(=O)c2cccc3c2C(=O)c2ccccc2C3=O)c1C was tested, and the Potency was inconclusive: 25.1 µM [inhibitor, partial curve].
With CCOC(=O)C1=C(C)N=c2s/c(=C\c3cccc(OCC(=O)O)c3)c(=O)n2C1c1ccccc1 (centres undefined) the Potency was inconclusive: 100 µM [inhibitor, partial curve].
CCn1c(C)cc(C(=O)COC(=O)c2ccccc2[N+](=O)[O-])c1C was tested, and the Potency was active: 44.7 µM.
With O=[N+]([O-])c1cc(-c2ccc(/C=N/c3nc4ccccn4c3-c3ccco3)o2)ccc1Cl the Potency was inconclusive: 63.1 µM [inhibitor, partial curve, poor fit].
Cc1cc2cc(CNC(=S)Nc3ccc(OC(F)F)cc3)ccc2n1C was tested, and the Potency was inconclusive: 39.8 µM [inhibitor, partial curve].
% is scaled to controls: 0 for no effect and ±100 for the full control effect; potency is read from the fitted curve at half-maximal effect; tags tell the direction and shape of the fitted curve.
Also: nearly all actives have a fitted effect of over 50% in size.
